From PubChem BioAssay AID485294 (National Center for Advancing Translational Sciences (NCATS), 2010)
Screen size: about 370,000 compounds; about 150 (0.041%) were called active. Inconclusive results, whose numbers are uncertain, are shown with a selection of clear calls. The call rests on the fitted dose curve; in most records, active means well fitted inhibition curve with a large enough effect; inconclusive means small, poorly fitted or top-dose-only effect; inactive means flat fitted curve, though single readings scatter. Potencies of inconclusive entries are left out as doubtful fits.

Biological target: Beta-lactamase (Escherichia coli (strain K12)) (UniProt P00811)
Assay: qHTS Inhibitors of AmpC Beta-Lactamase (assay with detergent); further: nearly all actives have a fitted effect of over 25% in size;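 on activity change, negative = inhibition: 0% = no-compound wells and -100% = no-enzyme wells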
Settings: AmpC hydrolysis of nitrocefin, absorbance 480 nm, 0.01% Triton; activity change, negative = inhibition: at 114 µM (top of the series)
In short: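 AmpC (5.3 nM in the dispensed reagent) in 20 mM phosphate pH 7.0 with 0.01% (detergent screen) or 0.0001% Triton X-100 was preincubated with compounds for 15 min at room temperature. Nitrocefin was then added from an 800 uM solution, and hydrolysis was followed at 480 nm.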
Potency means the concentration at half of the fitted maximal effect; tags describe the fitted curve by direction and shape.

UniProt P00811, sequence (P00811 whole entry, looked up): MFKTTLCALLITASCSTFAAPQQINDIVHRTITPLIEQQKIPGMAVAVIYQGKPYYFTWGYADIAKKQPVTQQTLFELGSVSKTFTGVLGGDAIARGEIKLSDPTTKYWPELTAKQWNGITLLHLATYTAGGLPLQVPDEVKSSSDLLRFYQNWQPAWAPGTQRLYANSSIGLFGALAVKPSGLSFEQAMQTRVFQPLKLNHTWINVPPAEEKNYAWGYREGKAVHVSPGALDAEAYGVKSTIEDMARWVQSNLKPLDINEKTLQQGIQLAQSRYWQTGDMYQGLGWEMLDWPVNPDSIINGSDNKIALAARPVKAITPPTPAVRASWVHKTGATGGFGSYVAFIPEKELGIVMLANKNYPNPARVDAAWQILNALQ

Q: For `CC(C)(C)NC(=O)C(c1ccco1)N(C(=O)Cn1nnc(-c2ccc(F)cc2)n1)c1cccc(F)c1` (stereo not given), which “activity change, negative = inhibition” value is on record?
A: inactive: -1.28%

Q: `CC(C)(O)[C@@H]1Cc2c(ccc3ccc(=O)oc23)O1` was tested. Which Potency did it give?
A: inconclusive [inhibitor, full curve, poor fit]

Q: How did the Potency turn out when `CCCCn1c(N)c(N(CC(C)C)C(=O)CSC(C)C(=O)Nc2cc(C)on2)c(=O)[nH]c1=O` (stereo not given) was run?
A: inconclusive [inhibitor, full curve]

Q: For `CC1(C)CC(NC(=O)COc2ccc([N+](=O)[O-])cc2)CC(C)(C)N1`, which Potency is on record?
A: inconclusive [inhibitor, full curve, poor fit]

Q: `COc1ccc(S(N)(=O)=O)cc1C(=O)NCCCN1CCN(c2ccc(C)cc2)CC1` was tested. Which Potency did it give?
A: inconclusive [inhibitor, partial curve]

Q: With `Cc1cccc(Oc2ccccc2NC(=O)C2=COCCO2)c1` as the compound, how does the “activity change, negative = inhibition” value read?
A: inactive: -1.58%

Q: With `CCOC(=O)c1c(S(=O)(=O)NCCc2ccco2)c(C)n(C)c1C` as the compound, how does the Potency read?
A: inconclusive [inhibitor, partial curve]

Q: Which Potency does the source give for `CC(C)CCn1c(SCC(=O)OCn2nnc3ccccc3c2=O)nc2ccccc2c1=O` here?
A: inconclusive [inhibitor, full curve]

Q: For `C/C(=N\NC(=S)NCc1ccccc1)c1ccccc1F`, which “activity change, negative = inhibition” value is on record?
A: inactive: 8.45%

Q: `COCCN(C(=O)COC(=O)c1ccccc1NCc1ccco1)c1c(N)n(Cc2ccccc2)c(=O)[nH]c1=O` was tested. Which “activity change, negative = inhibition” value did it give?
A: inactive: -7.44%

Q: With `Cc1cccc(N(C)C(=O)COc2cc(=O)n(C)c3ccccc23)c1` as the compound, how does the Potency read?
A: inconclusive [inhibitor, full curve, poor fit]

Q: `COc1ccccc1Cn1c(=O)c2ccccc2n2c(Sc3ncnc4sccc34)nnc12` was tested. Which Potency did it give?
A: inconclusive [inhibitor, full curve, poor fit]

Q: `CCc1ccc(OCC(=O)NNC(=O)C2CCC2)cc1` was tested. Which Potency did it give?
A: inconclusive [inhibitor, partial curve, poor fit]

Q: For `O=C1CC(c2ccccc2Cl)CC(O)=C1C=Nc1ccccc1` (stereo not given), which Potency is on record?
A: inconclusive [inhibitor, full curve]

Q: Which “activity change, negative = inhibition” value does the source give for `COC(=O)c1c(C)sc(-c2c(-c3ccc(F)cc3)[nH]c3[nH]c(=O)[nH]c(=O)c23)c1O` here?
A: inactive: -2.21%

Q: `c1cncc(Nc2nc(-c3ccncc3)cs2)c1` was tested. Which Potency did it give?
A: inconclusive [inhibitor, full curve, poor fit]

Q: How did the “activity change, negative = inhibition” value turn out when `COc1ccccc1/C=C1\SC(=S)N(CCC(=O)NCCCn2ccnc2)C1=O` was run?
A: inactive: 5.45%

Q: For `CCCc1nn2c(=O)cc(COC(=O)c3ccccc3NC(=O)C3CCCCC3)nc2s1`, which Potency is on record?
A: inconclusive [inhibitor, partial curve]

Q: Which Potency does the source give for `O=C(Oc1ccc(-c2cnc3ccccc3n2)cc1)c1ccc(Br)o1` here?
A: inconclusive [inhibitor, full curve, poor fit]

Q: For `O=C(NCC(c1cccs1)N1CCOCC1)c1cc(=O)[nH]c2ccccc12` (stereo not given), which Potency is on record?
A: inconclusive [inhibitor, partial curve]

Q: Which Potency does the source give for `O=C(O)c1cccc(C(=O)c2cccc(C(=O)O)c2)c1` here?
A: inconclusive [inhibitor, full curve, poor fit]

Q: How did the Potency turn out when `COc1ccc(CN(CC(=O)NC2CCCC2)C(=O)c2onc(C(N)=O)c2N)cc1` was run?
A: inconclusive [inhibitor, full curve]

Q: How did the Potency turn out when `COc1ccc(/C=C/C(=O)NC(=S)NCCc2ccc(OC)c(OC)c2)cc1` was run?
A: inconclusive [inhibitor, partial curve, poor fit]

Q: Which “activity change, negative = inhibition” value does the source give for `CCCn1cc(C(=O)OCC)c(=O)c2cc(F)c(F)cc21` here?
A: inactive: 2.81%

Q: For `O=C(CCS(=O)(=O)c1ccc(Cl)cc1)Nc1nnc(-c2cccs2)o1`, which Potency is on record?
A: inconclusive [inhibitor, full curve, poor fit]

Q: `CCOC(=O)Cn1c2[n+](c3ccccc31)CC(O)CS2` (stereo not given) was tested. Which Potency did it give?
A: inconclusive [inhibitor, full curve, poor fit]

Q: `COc1ccccc1C(=O)Nc1cccc(C(=O)N2CCOCC2)c1` was tested. Which Potency did it give?
A: inconclusive [inhibitor, full curve, poor fit]

Q: With `CC(C)c1cc(C(=O)NC2CCCc3c2cnn3-c2ccccc2F)no1` (stereo not given) as the compound, how does the “activity change, negative = inhibition” value read?
A: inactive: -10.2%

Q: With `COc1c(O)ccc(/C=N\NC(=O)c2ccc3c(c2)OCO3)c1[N+](=O)[O-]` as the compound, how does the Potency read?
A: inconclusive [inhibitor, partial curve, poor fit]

Q: `C=CCn1cc(C(=O)NCCCOCC)c(=O)c2cc(S(=O)(=O)N(CC)CC)ccc21` was tested. Which “activity change, negative = inhibition” value did it give?
A: inactive: 2.86%

Q: `CC(=O)NC1=NN(C(C)=O)C(c2sccc2C)S1` (stereo not given) was tested. Which Potency did it give?
A: inconclusive [inhibitor, partial curve, poor fit]

Q: `Cc1cccc(-c2nc3ccc(C(=O)NCCN4CCN(C)CC4)cc3nc2-c2cccc(C)c2)c1` was tested. Which Potency did it give?
A: inconclusive [inhibitor, full curve, poor fit]

Q: With `COc1ccccc1CNC(=O)C1CCCN(S(=O)(=O)c2ccc3c(c2)C(C)(C)C(=O)N3C)C1` (stereo not given) as the compound, how does the Potency read?
A: inconclusive [inhibitor, full curve]

Q: Which Potency does the source give for `CN(C)c1ccc(/C=C(/C#N)C(=O)NCc2ccccc2)o1` here?
A: inconclusive [inhibitor, full curve, poor fit]

Q: With `Cc1ccc(CCNC(=O)C2CCN(S(=O)(=O)c3c(C)nn(C)c3C)CC2)cc1` as the compound, how does the Potency read?
A: inconclusive [inhibitor, full curve, poor fit]

Q: How did the Potency turn out when `CCCn1c(Oc2ccccc2)nc2c1c(=O)n(C)c(=O)n2C` was run?
A: inconclusive [inhibitor, full curve, poor fit]

Q: For `Nc1nonc1-n1nnc(C(=O)N/N=C/c2ccc(OCc3cccc(Cl)c3)cc2)c1CN1CCCCC1`, which “activity change, negative = inhibition” value is on record?
A: inactive: -0.346%

Q: With `O=C(N/N=C/c1ccco1)C1CC1c1ccccc1` (stereo not given) as the compound, how does the “activity change, negative = inhibition” value read?
A: inactive: -12.1%

Q: Which Potency does the source give for `COc1ccc(NC(=O)c2sc3nc(Cc4ccccc4)cc(C(F)(F)F)c3c2N)cc1OC` here?
A: inconclusive [inhibitor, single point]

Q: With `CCc1ccc(-c2nc(SCC(=O)NC3CC3)n[nH]2)cc1` as the compound, how does the Potency read?
A: inconclusive [inhibitor, full curve, poor fit]

Q: `O=C(Cn1cnc(S(=O)(=O)N2CCOCC2)c1)Nc1ccc(OC(F)(F)F)cc1` was tested. Which Potency did it give?
A: inconclusive [inhibitor, single point]

Q: For `CC(C)CCNC(=O)c1c(N)n(Cc2ccc3c(c2)OCO3)c2nc3ccccc3nc12`, which Potency is on record?
A: inconclusive [inhibitor, full curve, poor fit]

Q: How did the Potency turn out when `N#Cc1ccccc1CSc1nc2ccsc2c(=O)n1Cc1ccccn1` was run?
A: inconclusive [inhibitor, partial curve, poor fit]

Q: `Cc1ccc(S(=O)(=O)Nc2ccccc2CNC2CCCCC2)cc1` was tested. Which Potency did it give?
A: inconclusive [inhibitor, full curve]

Q: For `O=C(Nc1nc2c(s1)COc1ccccc1-2)c1cccs1`, which Potency is on record?
A: inconclusive [inhibitor, full curve, poor fit]

Q: Which Potency does the source give for `Cc1n(Cc2ccccc2)c2ccccc2[n+]1Cc1ccccc1` here?
A: inconclusive [inhibitor, full curve, poor fit]

Q: `Nc1nc(SCC(=O)N2CCCC2)[nH]c(=O)c1NC(=O)c1ccco1` was tested. Which Potency did it give?
A: inconclusive [inhibitor, full curve, poor fit]

Q: How did the Potency turn out when `Cc1nc(NC(=O)c2ccccc2)sc1-c1csc(NCc2ccco2)n1` was run?
A: inconclusive [inhibitor, single point]

Q: With `O=C(Nc1ccc(NC(=O)c2cccs2)cc1)c1cccs1` as the compound, how does the “activity change, negative = inhibition” value read?
A: inactive: 8.57%

Q: `O=C(c1cc(-c2ccncc2)nc2ccccc12)N1CCOCC1` was tested. Which “activity change, negative = inhibition” value did it give?
A: inactive: 0%

Q: How did the Potency turn out when `CN1CCN(S(=O)(=O)c2ccc(NC(=O)c3ccccc3Cl)cc2)CC1` was run?
A: inconclusive [inhibitor, partial curve, poor fit]

Q: `Cn1c(Cn2c(=O)sc3ccccc32)nnc1SCC(=O)NCCc1ccccc1` was tested. Which Potency did it give?
A: inconclusive [inhibitor, partial curve, poor fit]

Q: With `CC(=O)c1cc(-c2ccc(F)cc2)n(CC(=O)NC2CCCCCC2)c1C` as the compound, how does the “activity change, negative = inhibition” value read?
A: inactive: 6.73%

Q: `COc1ccc(Br)cc1C1NC(=O)NC(C)=C1C(=O)N(C)C` (stereo not given) was tested. Which Potency did it give?
A: inconclusive [inhibitor, single point]

Q: How did the Potency turn out when `CC(=O)NCCC(=O)NCC1(N(C)Cc2ccccc2)Cc2ccccc2C1` was run?
A: inconclusive [inhibitor, full curve, poor fit]

Q: How did the “activity change, negative = inhibition” value turn out when `Cc1ccc(SCc2nc(N)nc(Nc3ccccc3C)n2)c(C)c1` was run?
A: inactive: 1.25%

Q: With `Cc1ccccc1-n1nnnc1SCC(=O)NCC1(N2CCOCC2)CCCCC1` as the compound, how does the Potency read?
A: inconclusive [inhibitor, full curve, poor fit]

Q: Which Potency does the source give for `O=C(Nc1ccc(F)cc1F)c1noc2c1CCC2` here?
A: inconclusive [inhibitor, single point]

Q: For `O=C1c2cnc3nc(SCc4cccc(Cl)c4)nn3c2CC2c3ccccc3CCN12` (stereo not given), which “activity change, negative = inhibition” value is on record?
A: inactive: -17.7%

Q: `O=C(O)c1ccc2c(c1)C(=O)N(c1ccc(Cl)cn1)C2=O` was tested. Which Potency did it give?
A: inconclusive [inhibitor, full curve, poor fit]

Q: Which “activity change, negative = inhibition” value does the source give for `CCCOC(=O)c1ccc(NC(=O)Cn2nnc3sc4c(c3c2=O)CCC(C(C)(C)C)C4)cc1` (stereo not given) here?
A: inactive: 8.23%

Q: For `COc1ccc(C(=O)COc2ccccc2N2C(=O)C3C4C=CC(C4)C3C2=O)cc1` (stereo not given), which “activity change, negative = inhibition” value is on record?
A: inactive: 5.61%

Q: `Cc1ccccc1NC(=O)C1C2CC/C=C\CCC21` (stereo not given) was tested. Which Potency did it give?
A: inconclusive [inhibitor, partial curve]

Q: How did the Potency turn out when `COc1ccc(OC)c(-c2cc(C(=O)Nc3c(C)nn(Cc4ccc(Cl)cc4)c3C)no2)c1` was run?
A: inconclusive [inhibitor, single point]

Q: `Cc1ccc(Cl)cc1NC(=O)NCc1ccccn1` was tested. Which Potency did it give?
A: inconclusive [inhibitor, partial curve]
